# Laboratory results published in publication PMC6919601, “Identification of Plasmodium dipeptidyl aminopeptidase allosteric inhibitors by high throughput screening” (PLoS ONE, 2019).
# “And” between values parts separate entries of the source, which are not always exact repeats. Equal entries are not always repeated. The whole screen tested about 110,000 compounds, of which about 230 (0.21%) showed an effect of 50% or more. Some of the results follow.
# Target: DPAP1 (Plasmodium falciparum, UniProt Q8IIJ9)
# Sequence (Q8IIJ9 whole entry, looked up): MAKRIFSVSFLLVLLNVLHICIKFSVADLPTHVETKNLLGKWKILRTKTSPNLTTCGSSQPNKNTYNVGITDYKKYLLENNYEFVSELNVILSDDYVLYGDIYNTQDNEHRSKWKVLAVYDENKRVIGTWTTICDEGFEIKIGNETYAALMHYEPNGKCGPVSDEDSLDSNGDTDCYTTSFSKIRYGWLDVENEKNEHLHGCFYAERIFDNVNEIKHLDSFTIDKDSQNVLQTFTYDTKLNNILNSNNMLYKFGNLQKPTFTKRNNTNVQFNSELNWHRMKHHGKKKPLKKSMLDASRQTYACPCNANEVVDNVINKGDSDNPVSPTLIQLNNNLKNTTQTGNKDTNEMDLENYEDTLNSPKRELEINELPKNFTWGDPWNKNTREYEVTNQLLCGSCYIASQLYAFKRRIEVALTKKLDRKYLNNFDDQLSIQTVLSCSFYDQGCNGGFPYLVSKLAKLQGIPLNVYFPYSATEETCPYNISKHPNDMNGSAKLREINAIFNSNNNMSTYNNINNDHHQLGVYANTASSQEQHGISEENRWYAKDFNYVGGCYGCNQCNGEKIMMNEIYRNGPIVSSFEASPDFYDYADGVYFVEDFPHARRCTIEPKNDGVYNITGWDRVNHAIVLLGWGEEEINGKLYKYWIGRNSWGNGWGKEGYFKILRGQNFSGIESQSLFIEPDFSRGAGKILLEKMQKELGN
# Experiment: primary screen, percent inhibition; read by cleavage of a fluorogenic dipeptide substrate; higher = more effect of the substance
# Set-up: species or system P. falciparum D10 trophozoite lysates; single well
# 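Note: 30 min substrate incubation versus DMSO and 10 µM JCP410 controls.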
row,Structure (SMILES),% Inhibition @ 10 uM
1,O=C(CSc1nccn1CCc1ccccc1)NCCOc1ccc(Cl)cc1,-1.24%
2,Cc1c2cnn(CC(=O)NCc3ccc4c(c3)OCO4)c(=O)c2c(C)n1Cc1ccccc1F,-2.17%
3,O=C1C2C3C=CC(O3)C2C(=O)N1c1ccccc1Br (stereo not drawn),-6.08%
4,O=c1c(F)cn(C2CCCO2)c(=O)n1CCCCCCO (stereo not drawn),2.01%
5,Cc1cc(NC(=O)CSc2nnc(Cc3cccn3C)n2-c2ccc(Cl)cc2)no1,-3.1%
6,COc1ccc(CNC(=O)c2nc3ncccn3n2)cc1,1.72%
7,Oc1c2nc3ccccc3c-2ncn1CCCN1CCN(C2CCCCC2)CC1,3.24%
8,Clc1ccc(CCNc2ncnc3c2nc2n3CCCCC2)cc1,-1.6%
9,O=C(O)c1cccc(COc2ccccc2Cl)c1,-1.96%
10,Cc1cc(NC(=O)CN2C(=O)c3cccc4cccc2c34)ccc1Br,-5.23%
11,CC(=O)CCc1c(S)nc2ccccc2c1C,-3.77%
12,Oc1nc(/C=C/c2ccccc2C(F)(F)F)cc(C(F)(F)F)n1,-2.48%
13,Cc1ccc(C(C)C)c(OCC(=O)Nc2cccc3cccnc23)c1,5.15%
14,O=C(O)CCC(=O)NCc1ccc(F)cc1,-6.78%
15,COc1ccccc1NC(=O)C1=C(C)NC(=O)NC1c1cccc(OC)c1OC (stereo not drawn),-0.999%
16,COc1ccc(CCNC(=O)CSc2nc3c(sc4ccccc43)c(=O)n2CCO)cc1OC,4.02%
17,CCOc1ccc(/N=C2\SC(C(=O)Nc3ccc(F)cc3)CC(=O)N2C)cc1 (stereo not drawn),-2.83%
18,COC(=O)c1ccc(-c2nc(-c3ccc(-n4cccc4)cc3)no2)cc1,-8.42%
19,Cc1cc([N+](=O)[O-])ccc1NC(=O)/C=C\C(=O)O,-4.49%
20,CN(C)c1ccc(C2C(C#N)=C(N)Oc3[nH]nc(-c4cccc5ccccc45)c32)cc1 (stereo not drawn),2.46%
21,Cc1cc2c(N)c(C(N)=O)sc2nc1-c1ccc(F)cc1,-1.6%
22,CCOc1ccccc1C(=O)Nc1nc(C)cs1,-8.36%

row,Structure (SMILES),% Inhibition @ 10 uM
1,CN(CCC(N)=O)Cc1ccccc1,-3.77%
2,CO/C(O)=C1\C(C)=NC2=C(C(=O)CC(C)(C)C2)C1c1ccc(OCc2ccccc2)c(OC)c1 (stereo not drawn),2.45%
3,CN(C)c1ccc2c(c1)OC(N)=C(C#N)C2c1ccc(F)cc1 (stereo not drawn),2.38%
4,COc1ccccc1NCN1C(=O)S/C(=C\c2cccc(F)c2)C1=O,-1.32%
5,Cc1ccc(NC(=O)CCC(=O)c2ccccc2)cc1,3.86%
6,c1cnc(N2CCN(Cc3ccc4ccccc4c3)CC2)nc1,0.708%
7,CCOC(=O)c1c(N)sc(C(=O)N2CCCC(C(N)=O)C2)c1C (stereo not drawn),-3.09%
8,O=S(=O)(NCc1csc(-c2cccnc2)n1)c1ccc2c(c1)CCCC2,-0.72%
9,CCOC(=O)c1noc2ncnc(NC(C)CC34CC5CC(CC(C5)C3)C4)c12 (stereo not drawn),3.33%
10,O=C(NC1CCCc2ccccc21)c1cc(-c2ccccc2)[nH]n1 (stereo not drawn),5.45%
11,CN(C)CCCN(CCCN(C)C)Cc1ccc(F)c(Br)c1,-2.21%
12,CC(C)CC(C(=O)NCC1CCN(Cc2cccc(Cl)c2)CC1)N1Cc2ccccc2C1=O (stereo not drawn),-1.58%
13,Cc1ccccc1Cn1ccn(Cc2ccccc2)c(=O)c1=O,-7.32%
14,COc1ccc2oc(=O)cc(CN3CCN(C4CCCCC4)CC3)c2c1,3.27%
15,Clc1cccc(CN2CCOCC2)c1,1.62%
16,Cc1cc(NC(=O)Nc2ccc(Cl)cc2)ccc1Br,0.635%
17,O=C(Nc1cccnc1Cl)c1ccc(Oc2ccccc2)cc1,-3.39%
18,O=C(COc1ccc(Cl)cc1Cl)Nc1cccc(Cl)c1Cl,1.55%
19,FC(F)(F)C(Oc1nc(N2CCCCC2)nc(N2CCOCC2)n1)C(F)(F)F,0.00178%
20,COc1cc(OC)cc(C2C(C#N)=C(N)Oc3[nH]nc(C(C)(C)C)c32)c1 (stereo not drawn),1.08%
21,CC1CCCC(NCc2ccc3c(c2)OCO3)C1 (stereo not drawn),-2.02%
22,O=C(Cn1c2c(c(-c3ccccc3Cl)cc1=O)CCC2)NCC1CCCO1 (stereo not drawn),-4.53%

row,Structure (SMILES),% Inhibition @ 10 uM
1,Cc1ccc(C(=O)NCC(c2ccco2)N2CCCC2)cc1 (stereo not drawn),17.2%
2,CC1(C)CC(=O)C2=C(C1)N(c1cccnc1Cl)C(N)=C(C#N)C2c1ccc(Br)s1 (stereo not drawn),-2.75%
3,Cc1ccc(S(=O)(=O)Cc2nc(-c3ccc(C(=O)NCc4ccc(F)cc4)cc3)oc2C)cc1,-2.56%
4,COCc1[nH]nc2c1C(c1cc(OC)cc(OC)c1)C(C#N)=C(N)O2 (stereo not drawn),4.11%
5,c1cncc(CN2CN(c3nc4ccccc4s3)CN(c3nc4ccccc4s3)C2)c1,-2.91%
6,Fc1ccc(N2CC(c3ccccc3)C(c3cccs3)=N2)c(F)c1 (stereo not drawn),-1.05%
7,CC1=NCCN1S(=O)(=O)c1cc(Cl)ccc1Cl,7.26%
8,Cc1c(C)n(Cc2ccccc2)c2ccc(C(=O)OCCN(C)C)cc12,-6.83% and 0.605%
9,O=C(NCCCN1CCOCC1)c1ccco1,0.146%
10,S=C1NCN(Cc2ccccc2)CN1,-1.26%
11,Cc1ccc(C(=O)Nc2nc3ccc(S(C)(=O)=O)cc3s2)o1,1.57%
12,CC(C)C1=CCC(C)/C(=C/c2ccc(F)cc2)C1=O (stereo not drawn),1.12%
13,CCOc1ccccc1CNc1nc2nc(C)c(Cl)c(C)n2n1,1%
14,COc1cc(OC)c(/C=C2/SC(=O)N(C(C)C)C2=O)c(OC)c1,0.163%
15,Cc1ccc(-c2onc(C)c2C)cc1S(=O)(=O)NCCC1=CCCCC1,-1.52%
16,C=CCS(=O)(=O)Nc1ccccc1,0.132%
17,CCC(C)NC(=O)C1c2cc(OC)c(OC)cc2C(=O)N2CCCCC12 (stereo not drawn),-1.51%
18,CCOC(=O)N1CCN(c2c(NC(C)CC)c(=O)c2=O)CC1 (stereo not drawn),-1.44%
19,Cc1nc2ccc(C(=O)N3CCN(c4ccccn4)CC3)cc2s1,-1.27%
20,Cc1nn(CC(=O)NCc2ccccn2)c(=O)c2nn(-c3ccccc3)c(C)c12,3.97%
21,NNC(=O)CNc1ccc(Cl)cc1Br,-4.4%
22,N#CCc1ccc(NC(=O)COc2ccc(F)cc2F)cc1,-1.75%
